The supplement of paper PMC8728848
The list shows a part of the results.

Columns and labels:
Assay in all cases: glycan array binding signal (z-score within array); higher = stronger binding
Settings in all cases: glycan notation: IUPAC condensed, linker removed
Glc(a1-6)Glc(a1-6)Glc = biological target: Glc(a1-6)Glc(a1-6)Glc
Outline: (§1)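 Glycan array data came from 3228 arrays in the Consortium for Functional Glycomics database, and only arrays with an available protein sequence were kept. Glycan names were put into IUPAC-condensed notation, and columns mapping to the same glycan were averaged. The binding signal is a within-array Z-score, averaged across arrays of one protein sequence run at different concentrations or buffers and across linkers. A negative Z-score can be read as non-binding.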

[1] = biological target: Glc(a1-6)Glc(a1-6)Glc(a1-6)Glc
Outline: as §1

Glc(b1-4)Glc = biological target: Glc(b1-4)Glc
Outline: as §1

Glc(b1-6)Glc = biological target: Glc(b1-6)Glc
Outline: as §1

GlcA(b1-3)Gal = biological target: GlcA(b1-3)Gal
Outline: as §1

GlcA(b1-3)GlcNAc = biological target: GlcA(b1-3)GlcNAc
Outline: as §1

GlcA(b1-6)Gal = biological target: GlcA(b1-6)Gal
Outline: as §1

[2] = biological target: GlcA3S(b1-3)Gal(b1-4)GlcNAc(b1-2)Man
Outline: as §1

[3] = biological target: GlcA3S(b1-3)Gal(b1-4)GlcNAc(b1-3)Gal(b1-4)Glc
Outline: as §1

[4] = biological target: GlcNAc(a1-3)Gal(b1-4)GlcNAc
Outline: as §1

[5] = biological target: GlcNAc(a1-4)Gal(b1-3)GlcNAc
Outline: as §1

[6] = biological target: GlcNAc(a1-4)Gal(b1-4)GalNAc
Outline: as §1

[7] = biological target: GlcNAc(a1-4)Gal(b1-4)GlcNAc
Outline: as §1

[8] = biological target: GlcNAc(a1-4)Gal(b1-4)GlcNAc(b1-3)Gal(b1-4)Glc
Outline: as §1

[9] = biological target: GlcNAc(a1-4)Gal(b1-4)GlcNAc(b1-3)Gal(b1-4)GlcNAc
Outline: as §1

[10] = biological target: GlcNAc(a1-4)Gal(b1-4)GlcNAc(b1-3)Gal(b1-4)GlcNAc(b1-3)Gal(b1-4)GlcNAc
Outline: as §1

[11] = biological target: GlcNAc(a1-4)Gal(b1-4)GlcNAc(b1-3)Gal(b1-4)[Fuc(a1-3)]GlcNAc(b1-3)Gal(b1-4)[Fuc(a1-3)]GlcNAc
Outline: as §1

[12] = biological target: GlcNAc(a1-6)Gal(b1-4)GlcNAc
Outline: as §1

[13] = biological target: GlcNAc(b1-2)Gal(b1-3)GalNAc
Outline: as §1

[14] = biological target: GlcNAc(b1-2)Man(a1-3)[GlcNAc(b1-2)Man(a1-6)]Man(b1-4)GlcNAc(b1-4)GlcNAc
Outline: as §1

[15] = biological target: GlcNAc(b1-2)Man(a1-3)[GlcNAc(b1-2)Man(a1-6)]Man(b1-4)GlcNAc(b1-4)[Fuc(a1-6)]GlcNAc
Outline: as §1

[16] = biological target: GlcNAc(b1-2)Man(a1-3)[GlcNAc(b1-4)][GlcNAc(b1-2)Man(a1-6)]Man(b1-4)GlcNAc(b1-4)GlcNAc
Outline: as §1

B1: HPAIIITrx (Helix pomatia), Q1KM18 (protein)
chain: MLFVTIISLGLLAIVHGQCALKTIAFSAAIDREQTFDANQVVIYDIVITNHGNAYDNSTGLFTAPVDGMYSFQLNLLTIKEKEGWLELVHNGQLKVSVYAKQDSTYDSSSNSVIIKMKEGDRVNVRAHKKSGLFGRDDELYNTFSGHFLSGL
Glc(a1-6)Glc(a1-6)Glc
  glycan array binding signal (z-score): -0.348
[1]
  glycan array binding signal (z-score): 0.008
Glc(b1-4)Glc
  glycan array binding signal (z-score): -0.122
Glc(b1-6)Glc
  glycan array binding signal (z-score): 0.224
GlcA(b1-3)Gal
  glycan array binding signal (z-score): -0.167
GlcA(b1-3)GlcNAc
  glycan array binding signal (z-score): -0.338
GlcA(b1-6)Gal
  glycan array binding signal (z-score): -0.196
[2]
  glycan array binding signal (z-score): -0.21
[3]
  glycan array binding signal (z-score): -0.304
[4]
  glycan array binding signal (z-score): 0.416
[5]
  glycan array binding signal (z-score): 0.392
[6]
  glycan array binding signal (z-score): -0.052
[7]
  glycan array binding signal (z-score): 1.84
[8]
  glycan array binding signal (z-score): 1.52
[9]
  glycan array binding signal (z-score): 1.69
[10]
  glycan array binding signal (z-score): 2.06
[11]
  glycan array binding signal (z-score): 1.47
[12]
  glycan array binding signal (z-score): -0.341
[13]
  glycan array binding signal (z-score): -0.179
[14]
  glycan array binding signal (z-score): -0.058
[15]
  glycan array binding signal (z-score): -0.293
[16]
  glycan array binding signal (z-score): -0.401
